167 variants from the RNAGym collection of RNA variant scans (doi:10.7554/elife.90254) can be followed below.

The source gives no read counts; variants with many changes may rest on few reads.

B1: LINE1-full (parent)
chain: UACGUAGGUGGUUUUCCCCUGAUAGUGCUAAGGGGGCCUGGAAGUUUGGACUGGGCAGAGCUCAACACAGCGUGGCAAAGUGGCUGUGGCUAGACUGCCUCUCUGGAUUCCUCGUCACUCAGCAGGGCAUCUCUGAGAGAAAUGCC

In the data set the parent is B1. Kind of data set: self-cleavage, relative activity (ratio to wild type); higher = more cleavage; in vitro, sequencing; the parent is a self-cleaving ribozyme.
On to G35U A64G U85C A92U, for which the self-cleavage turned out to be 0.13.

U52C U96A U119A A138G: the self-cleavage stood at 0.

As to G49A U132A A140G, the self-cleavage came out at 0.67.

For A42G G54A U104C A141G, the self-cleavage was 0.44.

A22G A57G U62A: the self-cleavage amounted to 0.2.

Take U15C U109C U119A: the self-cleavage is 0.32.

Turning to C18A U20C U134A, the self-cleavage was 0.82.

As for A24G A77G G86U A94G A136G, the self-cleavage worked out at 0.4.

In the case of A65U U81G A92G U115C, the self-cleavage came to 0.97.

On to U39A A77G A117G A141G, for which the self-cleavage amounted to 2.3.

Consider U100C A136U U143C, for which the self-cleavage turned out to be 2.26.

With A57G A92G U112C A117U, the self-cleavage is 0.

For the variant U20C A121U A142G, the self-cleavage turned out to be 1.61.

As for C28A U39G A107G U130C, the self-cleavage was found to be 1.27.

As for U1C A43G U62C U112C C131U, the self-cleavage amounted to 0.21.

In the case of U14C U26C U108C A142G, the self-cleavage turned out to be 1.75.

As to G21A U45C A94G, the self-cleavage came out at 0.25.

As for C71U U87A U91C, the self-cleavage came to 0.02.

On to U13A A77G A94G U102A U132C, for which the self-cleavage was determined as 0.2.

For A22C U39A A117U, the self-cleavage came to 2.13.

For the variant U14A A138G U143C, the self-cleavage is 1.23.

G7A U12G A50G A121C C128U: the self-cleavage was 1.07.

Consider A22G U26A A140G, for which the self-cleavage was found to be 0.88.

G4A G44U U134C: the self-cleavage is 1.23.

Regarding U47A U62G A77G A141G, the self-cleavage amounted to 0.07.

Turning to U12G U62C U108C, the self-cleavage worked out at 0.15.

With U45A G75U U134A, the self-cleavage worked out at 0.35.

Take A59C U62C A141G: the self-cleavage stood at 0.

In the case of U1A A42G A136U, the self-cleavage was determined as 0.51.

In the case of U20C G49A A117G, the self-cleavage was determined as 0.48.

Take U45C A92U A129G A140G: the self-cleavage came to 0.84.

In the case of A2U A67G A77U A121G, the self-cleavage amounted to 0.41.

For U52A U81C C133U U143C C146U, the self-cleavage stood at 0.63.

For U23A U47A U134A, the self-cleavage stood at 1.17.

As to G36A G54U U119A, the self-cleavage came out at 0.69.

For A6U G70A U115C A142G, the self-cleavage worked out at 0.06.

Take U20C C98U A142G: the self-cleavage amounted to 0.63.

As to G54A U62A A142G, the self-cleavage was 0.05.

As for A78G U109A U134C, the self-cleavage worked out at 0.95.

On to A42G A50G C71A A121G U130A U134C A142G, for which the self-cleavage turned out to be 0.16.

In the case of U45A U52A G105A A138G A141G, the self-cleavage was 0.66.

For A2U U12C A124U A129G, the self-cleavage worked out at 1.26.

In the case of U9A C37U G72A U134A A140G, the self-cleavage turned out to be 0.35.

Turning to A59G A79G G82U G88C U102C U108C U119C, the self-cleavage is 0.

As to U26C A78G A107G A140G, the self-cleavage was determined as 2.16.

In the case of G7U A50U U119C U134A, the self-cleavage turned out to be 1.21.

For the variant A43G C131A A140G, the self-cleavage was 1.89.

U15C A121G G126A: the self-cleavage was found to be 1.87.

As for A42G A59G U115C, the self-cleavage is 0.32.

Take A69U U100C U104C U108C: the self-cleavage was determined as 0.

Consider C3U U9A A117U, for which the self-cleavage turned out to be 1.34.

Turning to A24G A30G A43G U119A, the self-cleavage amounted to 1.62.

Take G10A U13C U62C U85C: the self-cleavage was 0.23.

With A77G C101G A124U, the self-cleavage was found to be 1.99.

Regarding G8A U13C U81A C128G, the self-cleavage was 2.2.

In the case of U15A U87C U108G, the self-cleavage is 0.35.

Turning to U47C A69G G80A U81A C90G A121U, the self-cleavage was found to be 0.06.

As to A42U A64U A92G A94U U100C A141G, the self-cleavage stood at 0.12.

For U45C U73A A94G, the self-cleavage stood at 0.15.

Consider G40A A59G U91A, for which the self-cleavage was 0.07.

For the variant U20A G32U U39C A142G, the self-cleavage came to 0.98.

As for G58A U87A G114A, the self-cleavage stood at 0.1.

As for U5A G55A G89U A92G U115C A140G, the self-cleavage turned out to be 0.06.

In the case of U47A A124G U132C, the self-cleavage worked out at 0.51.

Regarding U39C A43G A65G, the self-cleavage is 0.

With A64G G72A U87A, the self-cleavage came to 0.05.

For the variant G7U G11A A43G A57U U73G U143C, the self-cleavage is 0.3.

As for C17U G32A G35C U62C U100C U112A U134A, the self-cleavage is 0.

For the variant U9C G35A A42U A136G A141G, the self-cleavage was determined as 0.22.

Take A67G G82A U108C: the self-cleavage turned out to be 0.57.

In the case of A22U A42U A69G, the self-cleavage was determined as 0.43.

Take G34A A57G A79G A138G: the self-cleavage is 0.76.

With A64U U73C U112A U115C, the self-cleavage came to 0.61.

In the case of U9A U13C A22G, the self-cleavage was 0.62.

Consider C3U U23C U87C, for which the self-cleavage was determined as 0.

On to U9C U20C U85C U109C A140U, for which the self-cleavage amounted to 0.

As to U15C U73C U100C U132C, the self-cleavage was determined as 1.62.

For U13A U85C A141G, the self-cleavage was 0.05.

For the variant A22U C63U A67G, the self-cleavage is 0.19.

With A69G U112C G122A A140G, the self-cleavage came to 0.09.

As to U85A G97U U109C, the self-cleavage was determined as 0.2.

In the case of C84U A124C A136G, the self-cleavage turned out to be 0.11.

Turning to A50U A94G A129U, the self-cleavage is 0.19.

Take A64C A117C U130C U134C: the self-cleavage is 0.54.

U14C A43G U45C A50G C71U A142G: the self-cleavage was 0.26.

On to U5C U87G A92G U143C, for which the self-cleavage was determined as 0.

For the variant A22G A43G U73A, the self-cleavage was determined as 1.82.

In the case of U15C G32U U46C U100C, the self-cleavage came to 2.26.

Turning to C116A A136G A138G, the self-cleavage came to 2.01.

As for U62C U73A U81A, the self-cleavage is 0.02.

Take U23C G58U A69G U115C: the self-cleavage was found to be 0.31.

As for A78G U132C A140G, the self-cleavage turned out to be 0.82.

In the case of U9A A43U U62C, the self-cleavage was determined as 0.12.

With A31G G33A U73C, the self-cleavage was 2.1.

As for U12C U14C A50G U73A A136G, the self-cleavage came out at 0.66.

As to A43G U62C A64U, the self-cleavage was 0.15.

Regarding A43U A94U G127A, the self-cleavage is 0.

A30G A77G U104A: the self-cleavage worked out at 1.25.

With G7C U9A C19U U62C U119C U130C, the self-cleavage was 0.

Turning to U15C U47C A124G, the self-cleavage is 1.68.

As for G40A A57U G60A U134C A142G, the self-cleavage was 0.02.

With U45C G53A U115A, the self-cleavage stood at 0.46.

As for A30G U91C U115C A142G, the self-cleavage amounted to 0.

U20C G34C U47A C113A: the self-cleavage was 1.48.

On to C28A U46C U143C, for which the self-cleavage was found to be 1.19.

For G53A A65G U85A A92G, the self-cleavage was 0.03.

As to A57G A65G G80A, the self-cleavage amounted to 0.14.

Take U15C A30G U96C A138G: the self-cleavage was found to be 0.89.

Regarding U14C U45C G75U U85G C99A, the self-cleavage is 0.

As for U26C U47A U73C, the self-cleavage was 1.95.

Take G34U U62A A78U: the self-cleavage worked out at 0.01.

With U20A U26C C63U G97U, the self-cleavage came out at 0.32.

On to U13C U62A U73A, for which the self-cleavage was determined as 0.11.

In the case of A2G U62C U73A C113A U119A, the self-cleavage was 0.2.

Regarding C17A A67G A77G, the self-cleavage is 0.5.

With G11A A42G U47C A77G, the self-cleavage was 2.23.

Turning to U45C A79G C90U A107G U112A C133U, the self-cleavage amounted to 0.07.

With C3U U26C A77C A142G, the self-cleavage was 0.34.

Take U23C A94G A140C: the self-cleavage was found to be 0.29.

For the variant U47C U62C A65G A67U C103U, the self-cleavage is 0.12.

In the case of U45A A78G C101A U112C U134C, the self-cleavage was 1.31.

In the case of A43G A65G C66U A140G, the self-cleavage was found to be 0.06.

As to C3U A78G G82A U100C, the self-cleavage stood at 1.01.

As to A43G A69G A107G, the self-cleavage came out at 0.71.

Turning to U14C U115C U119A, the self-cleavage was found to be 1.49.

Consider U12G U15C C95U U96C U119C U134C, for which the self-cleavage came out at 0.

With A124G U130C A136G, the self-cleavage was 0.71.

For U104C A117G A121G, the self-cleavage was determined as 0.92.

For U29A A121U U134A, the self-cleavage is 0.69.

U13C A59U A107G A142G: the self-cleavage stood at 1.31.

As for A24G A43G U91A A138G, the self-cleavage stood at 0.

In the case of U13G A79U U81C G93A U96A, the self-cleavage was 0.35.

For the variant U109A U115C U143A, the self-cleavage came out at 0.94.

As for U29C U47A A129C, the self-cleavage was 1.49.

On to A2G A138G U143A, for which the self-cleavage came to 1.12.

For U5C C61A U96C G114A A136U A138G, the self-cleavage was 0.12.

G33A A50G A78U U109C: the self-cleavage stood at 1.18.

Turning to A31G U39A U52G, the self-cleavage worked out at 1.41.

For the variant A50G C71A A92G U100A U102A, the self-cleavage is 0.

With U39A A121G G135A, the self-cleavage is 1.87.

For A69U U100A A138G, the self-cleavage worked out at 0.02.

Turning to G105U U130A A141G, the self-cleavage worked out at 1.21.

With U14C U23C A77C A121U, the self-cleavage is 1.06.

Consider A42G A59G A78G, for which the self-cleavage turned out to be 0.

For the variant A2G G89A U112C A136U, the self-cleavage worked out at 0.09.

Consider U20A U26A U104A U112C U115C, for which the self-cleavage was found to be 0.76.

On to U62C A79G U134G, for which the self-cleavage worked out at 0.1.

A2G G41C C63U: the self-cleavage was determined as 0.32.

Take A78C U102A U115C: the self-cleavage is 1.95.

In the case of U20C G35U U96C U108C, the self-cleavage stood at 0.

For U20C U100A U132C A142C, the self-cleavage turned out to be 2.07.

Turning to A30G U45A A141U, the self-cleavage was 1.05.

On to U81C C84U A140U, for which the self-cleavage is 0.14.

Consider U5C U91C C146U, for which the self-cleavage stood at 0.47.

U20C U47C U96A A121G: the self-cleavage amounted to 0.16.

Consider U15C U73A A78G, for which the self-cleavage was determined as 0.48.

For U15C A67G A94G, the self-cleavage came to 0.

For the variant A31C G34A U115C, the self-cleavage was found to be 0.

For U12C U14A G93A, the self-cleavage was 0.12.

U73A U115A A124U A142G: the self-cleavage worked out at 1.14.

For the variant A31G G80A A117U, the self-cleavage is 2.

Turning to G4A U39A U73A A117U, the self-cleavage was 1.23.

As for U13A U15C A141G, the self-cleavage is 1.94.

Consider G70U U134C A142G U143A, for which the self-cleavage came to 0.08.

As to U14C U45C G49U U130C, the self-cleavage stood at 1.33.

Take U14C U45C U73C A107U: the self-cleavage was found to be 1.25.

In the case of A65U U96G A117U, the self-cleavage worked out at 0.1.
